Results published in PubChem BioAssay AID485344 (National Center for Advancing Translational Sciences (NCATS), 2010).
The campaign covered roughly 340,000 compounds. About 6,900 (2%) were called active. No stated cut-off is given here; in the data, active means inhibition above about 30%; inactive means below that, where a call was filed. Only a part is listed here, and it is no random draw. The source gives no active or inactive call for entries shown without one.
Further: 0% is about no effect.

What follows are compounds tested against D(2) dopamine receptor (Homo sapiens) (UniProt P14416) (assay: HTS Assay for Allosteric Antagonists of the Human D2 Dopamine Receptor: Primary Screen for Antagonists). Settings: HEK293 TREx D2 cells, calcium flux, dopamine EC80; at 10 µM; stronger effect = higher value.
Sequence of UniProt P14416 (P14416 whole entry, looked up): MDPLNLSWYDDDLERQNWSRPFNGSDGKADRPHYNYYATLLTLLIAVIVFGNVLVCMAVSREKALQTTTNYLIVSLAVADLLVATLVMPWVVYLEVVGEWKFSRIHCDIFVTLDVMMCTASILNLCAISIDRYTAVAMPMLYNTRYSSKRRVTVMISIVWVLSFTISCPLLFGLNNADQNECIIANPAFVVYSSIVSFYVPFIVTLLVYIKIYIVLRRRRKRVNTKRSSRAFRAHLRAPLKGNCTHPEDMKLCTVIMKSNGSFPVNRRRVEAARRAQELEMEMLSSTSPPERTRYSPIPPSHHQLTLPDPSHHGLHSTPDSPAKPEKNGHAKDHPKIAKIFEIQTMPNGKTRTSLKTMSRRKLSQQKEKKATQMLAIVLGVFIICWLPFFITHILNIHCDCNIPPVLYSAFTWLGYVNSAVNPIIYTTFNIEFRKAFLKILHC
Procedure, shortened: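 HEK293 T-REx D2 cells, tet-induced, calcium dye no-wash. Cpd pintool add, 180 s kinetic, then EC80 DA, 180 s kinetic. Ca flux read.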
`CN(c1ccccc1)C(CNS(=O)(=O)c1ccccc1)c1ccccc1` (configuration not stated) was tested, and the inhibition was 4.82%.
For `CCCCN(CC)CCNc1ncnc2onc(-c3ccc(Cl)cc3)c12`, the inhibition was 8.01%.
`COc1ccccc1NC(=O)CN1CCN(CC(=O)Nc2ccc(F)c(F)c2)CC1` was tested, and the inhibition was -19.2%.
In the case of `Clc1cccc(OCCCCN2CCCCC2)c1`, the inhibition is reported as active: 76.8%.
With `O=S(=O)(Nc1cccc(-c2ccc(N3CCOCC3)nn2)c1)c1cc(C(F)(F)F)ccc1Cl` the inhibition was 10.7%.
Compound `COc1ccc(C2c3c(-c4ccccc4O)n[nH]c3C(=O)N2CCc2ccccc2)cc1` (configuration not stated) has an inhibition of -7.09%.
With `COC(=O)c1ccc(Cl)cc1NC(=O)Nc1nnc(N(C)Cc2ccccc2)s1` the inhibition was 5.12%.
Work on `CCC(C(=O)OC)n1nnc2sc(-c3ccccc3)cc2c1=O` (configuration not stated) yielded an inhibition of -3.9%.
`CCOC(=O)c1ccc(CN(Cc2ccc(Br)cc2)S(=O)(=O)c2cccc(C(F)(F)F)c2)cc1` gave an inhibition of 18.5%.
`COc1ccc2c(c1)c(=O)c(C(=O)c1ccc(C)cc1)cn2Cc1ccccc1F` gave an inhibition of 2.57%.
Work on `Cc1cc(C)cc(NC(=O)C(=O)NCC(c2cccnc2)N2CCc3ccccc32)c1` (configuration not stated) yielded an inhibition of 14.6%.
Work on `Cn1c(=O)c2sccc2n2c(CCC(=O)Nc3ccc(F)cc3)nnc12` yielded an inhibition of 0.966%.
Compound `COc1cccc(C(=O)c2sc(Nc3ccc(F)c(Cl)c3)nc2N)c1` has an inhibition of 4.83%.
With `Cc1nnc(SCC(=O)Nc2nccs2)s1` the inhibition was active: 33.7%.
`Cc1ccc(C)c(NC(=O)CSc2nnc(C)n3c2cc2occc23)c1` gave an inhibition of -6.25%.
`COc1ccc(OC)c(-c2noc(N3CCN(c4cc(Cl)ccc4C)CC3)n2)c1` was tested, and the inhibition was -3.74%.
For `COc1cc(C(=O)Nc2ccccc2OCc2cc(=O)n3c(C)csc3n2)cc(OC)c1OC`, the inhibition was 2.27%.
Work on `Cc1ccc(C)c(N2CCN(C(=O)CN3CCSc4ccccc43)CC2)c1` yielded an inhibition of 8.24%.
For `Cc1cccc(-c2nc(SCc3cc(=O)c4cccc(F)c4[nH]3)n[nH]2)c1`, the inhibition was -10.8%.
With `CN(Cc1nccs1)C(=O)C1CCC(=O)N(CCc2ccc(Cl)cc2)C1` (configuration not stated) the inhibition was active: 32.7%.
With `CCN1CCN(C(c2ccc(C)cc2)c2sc3nc(-c4ccco4)nn3c2O)CC1` (configuration not stated) the inhibition was 5.58%.
`COCCn1c(=N)c(C(=O)NCC2CCCO2)cc2c(=O)n3ccccc3nc21` (configuration not stated) gave an inhibition of 0.374%.
With `CCOc1ccc(CCNC(=O)CSc2nnnn2-c2ccccc2Cl)cc1OCC` the inhibition was 11.1%.
Compound `COc1ccc(N2C(=O)C(CC(=O)Nc3ccc(Cl)cc3)N(Cc3ccc4c(c3)OCO4)C2=O)cc1` (configuration not stated) has an inhibition of 16.5%.
For `COc1ccc(NC(=O)CCc2nc3cccnc3n2-c2ccccc2)c(OC)c1`, the inhibition was -4.51%.
With `Cc1cccc2sc(N(Cc3cccnc3)C(=O)CCS(=O)(=O)c3ccccc3)nc12` the inhibition was -13.6%.
In the case of `CCOC(=O)c1c(NC(=O)c2cc(=O)c3cc(Cl)ccc3o2)sc(C)c1C`, the inhibition is reported as 9.36%.
With `Cn1c(C(=O)NCCCN2CCN(c3cccc(Cl)c3)CC2)cc2c(=O)n(C)c3ccccc3c21` the inhibition was active: 95.2%.
`C#CCSc1nccc(-c2nn(-c3ccc(C)cc3)ccc2=O)n1` was tested, and the inhibition was active: 32.3%.
`Fc1ccc(F)c(Nc2c3c(nc4ccc(Cl)cc24)CCC3)c1` gave an inhibition of -10%.
With `CCN(CC)CCCNC(=O)c1c2c(nc3ccccc13)C(=O)N(C1CCCCC1)C2` the inhibition was 2.98%.
`CCOc1cc(/C=N/NC(=O)c2ccc(N(C)S(=O)(=O)c3ccccc3)cc2)ccc1OC` was tested, and the inhibition was active: 31.2%.
For `CC(=O)c1cccc(NC(=O)COC(=O)c2ccc3c(c2)OCCO3)c1`, the inhibition was active: 39.1%.
With `O=C(NCCS(=O)(=O)N1CCN(c2ccccc2F)CC1)c1ccccc1C(F)(F)F` the inhibition was 2.49%.
For `COc1cccc(CNC(=O)Cn2c(=O)cc(C(F)(F)F)c3c(C)nn(C)c32)c1OC`, the inhibition was -9.4%.
Compound `CCOC(=O)c1ccc2c(c1)sc1nc(-c3ccc(OCC)cc3)cn12` has an inhibition of 9.81%.
For `COc1cccc2sc(N(Cc3cccnc3)C(=O)C3CCCCC3)nc12`, the inhibition was -19%.
Compound `CCOC(=O)C1CCCN(C(=O)c2cc3c(Cl)nc4ccccc4c3s2)C1` (configuration not stated) has an inhibition of 27.9%.
In the case of `CC1CCc2c(sc3nc(-c4cc5ccccc5oc4=O)nc(Cl)c23)C1` (configuration not stated), the inhibition is reported as -19.3%.
Compound `CCOc1ccc(C2c3c(-c4ccccc4O)n[nH]c3C(=O)N2Cc2cccnc2)cc1OC` (configuration not stated) has an inhibition of 16%.
Work on `CC(C)c1nn2c(=O)cc(COC(=O)c3cccc(NC(=O)c4ccccc4F)c3)nc2s1` yielded an inhibition of 6.57%.
With `O=C(Nc1cccc(Cl)c1)C(Cc1ccccc1)n1cccc1` (configuration not stated) the inhibition was 1.1%.
Compound `CCC1Oc2ccc(C)cc2N(CC(=O)NCc2ccc(F)cc2)C1=O` (configuration not stated) has an inhibition of -12.4%.
For `Cc1ccc(C)c(N(C)C(=O)CCNC(=O)Cn2cnc3ccccc3c2=O)c1`, the inhibition was 0.76%.
`CC(C)CC(=O)Nc1nnc(S(=O)(=O)N(C)c2ccc(Cl)cc2)s1` showed an inhibition of 3.34%.
For `CC(C)(C)CC(C)(C)NC(=S)NC1CCN(Cc2ccccc2)CC1`, the inhibition was active: 66.1%.
`Cc1c(-c2ccc(Cl)cc2)c(=O)oc2c(CN3CCN(C)CC3)c(O)ccc12` showed an inhibition of 4.21%.
Work on `O=C(CNC(=O)c1ccccc1Cl)OCc1cc(=O)n2nc(C3CC3)sc2n1` yielded an inhibition of 12%.
For `CC1=CC(C)(C)N(C(=O)CN2C(=O)CCC2=O)c2ccc(C)cc21`, the inhibition was active: 30.3%.
Work on `CCOC(=O)c1ccc(NC(=O)CSc2cc(-c3ccccc3)nc(C)n2)cc1` yielded an inhibition of 1.07%.
`CN(CCNC(=O)c1ccc(/C=N/O)nc1)Cc1ccccc1` was tested, and the inhibition was active: 60.8%.
For `O=C1CC(c2ccccc2)Cc2[nH]c(=O)c(C(=O)Nc3ccc(F)cc3)cc21` (configuration not stated), the inhibition was -14.8%.
For `CN(C)c1ccc(C(=O)N/N=C/c2cc(Br)cc(Br)c2O)cc1`, the inhibition was active: 32.1%.
For `Cc1c(C(=O)N2CCCCCC2)c(S(=O)(=O)Nc2ccc(OC(F)(F)F)cc2)c(C)n1C`, the inhibition was 0.0604%.
In the case of `COc1cc(/C=C2\SC(=O)N(Cc3ccc(F)cc3)C2=O)cc([N+](=O)[O-])c1O`, the inhibition is reported as active: 31.5%.
`CCOc1ccc2c(c1)c(=O)c(S(=O)(=O)c1ccc(CC)cc1)cn2CC` was tested, and the inhibition was 2.87%.
Compound `CCc1ccc(OCC(=O)Nc2cc3oc4ccccc4c3cc2OC)c(Br)c1` has an inhibition of 19.9%.
`CCOc1ccccc1-c1noc(CSc2nnc(-c3ccncc3)n2-c2ccc(F)cc2)n1` was tested, and the inhibition was 5.78%.
With `COc1cc(OC)cc(C(=O)N2CCC(N3CCN(c4ccccc4)CC3)CC2)c1` the inhibition was active: 37.1%.
Work on `COc1ccc(-c2nnc(SCC(=O)N3CCCCC3)o2)cc1` yielded an inhibition of -1.14%.
With `COc1ccc(CN2C3CCC2CC(NC(=O)c2cccc(F)c2)C3)cc1` (configuration not stated) the inhibition was active: 81.3%.
`O=C(COc1ccccc1)Nc1c(C(=O)N2CCN(c3ccc(F)cc3)CC2)oc2ccccc12` was tested, and the inhibition was -2.48%.
